For 2 molecules, binding results are on record in article PMC3748711.

Protein sequences, listed by entry. Tags and fused reporters are not part of them. Residues count along the entry.
UniProt Q91ZX7, residues 20-4545: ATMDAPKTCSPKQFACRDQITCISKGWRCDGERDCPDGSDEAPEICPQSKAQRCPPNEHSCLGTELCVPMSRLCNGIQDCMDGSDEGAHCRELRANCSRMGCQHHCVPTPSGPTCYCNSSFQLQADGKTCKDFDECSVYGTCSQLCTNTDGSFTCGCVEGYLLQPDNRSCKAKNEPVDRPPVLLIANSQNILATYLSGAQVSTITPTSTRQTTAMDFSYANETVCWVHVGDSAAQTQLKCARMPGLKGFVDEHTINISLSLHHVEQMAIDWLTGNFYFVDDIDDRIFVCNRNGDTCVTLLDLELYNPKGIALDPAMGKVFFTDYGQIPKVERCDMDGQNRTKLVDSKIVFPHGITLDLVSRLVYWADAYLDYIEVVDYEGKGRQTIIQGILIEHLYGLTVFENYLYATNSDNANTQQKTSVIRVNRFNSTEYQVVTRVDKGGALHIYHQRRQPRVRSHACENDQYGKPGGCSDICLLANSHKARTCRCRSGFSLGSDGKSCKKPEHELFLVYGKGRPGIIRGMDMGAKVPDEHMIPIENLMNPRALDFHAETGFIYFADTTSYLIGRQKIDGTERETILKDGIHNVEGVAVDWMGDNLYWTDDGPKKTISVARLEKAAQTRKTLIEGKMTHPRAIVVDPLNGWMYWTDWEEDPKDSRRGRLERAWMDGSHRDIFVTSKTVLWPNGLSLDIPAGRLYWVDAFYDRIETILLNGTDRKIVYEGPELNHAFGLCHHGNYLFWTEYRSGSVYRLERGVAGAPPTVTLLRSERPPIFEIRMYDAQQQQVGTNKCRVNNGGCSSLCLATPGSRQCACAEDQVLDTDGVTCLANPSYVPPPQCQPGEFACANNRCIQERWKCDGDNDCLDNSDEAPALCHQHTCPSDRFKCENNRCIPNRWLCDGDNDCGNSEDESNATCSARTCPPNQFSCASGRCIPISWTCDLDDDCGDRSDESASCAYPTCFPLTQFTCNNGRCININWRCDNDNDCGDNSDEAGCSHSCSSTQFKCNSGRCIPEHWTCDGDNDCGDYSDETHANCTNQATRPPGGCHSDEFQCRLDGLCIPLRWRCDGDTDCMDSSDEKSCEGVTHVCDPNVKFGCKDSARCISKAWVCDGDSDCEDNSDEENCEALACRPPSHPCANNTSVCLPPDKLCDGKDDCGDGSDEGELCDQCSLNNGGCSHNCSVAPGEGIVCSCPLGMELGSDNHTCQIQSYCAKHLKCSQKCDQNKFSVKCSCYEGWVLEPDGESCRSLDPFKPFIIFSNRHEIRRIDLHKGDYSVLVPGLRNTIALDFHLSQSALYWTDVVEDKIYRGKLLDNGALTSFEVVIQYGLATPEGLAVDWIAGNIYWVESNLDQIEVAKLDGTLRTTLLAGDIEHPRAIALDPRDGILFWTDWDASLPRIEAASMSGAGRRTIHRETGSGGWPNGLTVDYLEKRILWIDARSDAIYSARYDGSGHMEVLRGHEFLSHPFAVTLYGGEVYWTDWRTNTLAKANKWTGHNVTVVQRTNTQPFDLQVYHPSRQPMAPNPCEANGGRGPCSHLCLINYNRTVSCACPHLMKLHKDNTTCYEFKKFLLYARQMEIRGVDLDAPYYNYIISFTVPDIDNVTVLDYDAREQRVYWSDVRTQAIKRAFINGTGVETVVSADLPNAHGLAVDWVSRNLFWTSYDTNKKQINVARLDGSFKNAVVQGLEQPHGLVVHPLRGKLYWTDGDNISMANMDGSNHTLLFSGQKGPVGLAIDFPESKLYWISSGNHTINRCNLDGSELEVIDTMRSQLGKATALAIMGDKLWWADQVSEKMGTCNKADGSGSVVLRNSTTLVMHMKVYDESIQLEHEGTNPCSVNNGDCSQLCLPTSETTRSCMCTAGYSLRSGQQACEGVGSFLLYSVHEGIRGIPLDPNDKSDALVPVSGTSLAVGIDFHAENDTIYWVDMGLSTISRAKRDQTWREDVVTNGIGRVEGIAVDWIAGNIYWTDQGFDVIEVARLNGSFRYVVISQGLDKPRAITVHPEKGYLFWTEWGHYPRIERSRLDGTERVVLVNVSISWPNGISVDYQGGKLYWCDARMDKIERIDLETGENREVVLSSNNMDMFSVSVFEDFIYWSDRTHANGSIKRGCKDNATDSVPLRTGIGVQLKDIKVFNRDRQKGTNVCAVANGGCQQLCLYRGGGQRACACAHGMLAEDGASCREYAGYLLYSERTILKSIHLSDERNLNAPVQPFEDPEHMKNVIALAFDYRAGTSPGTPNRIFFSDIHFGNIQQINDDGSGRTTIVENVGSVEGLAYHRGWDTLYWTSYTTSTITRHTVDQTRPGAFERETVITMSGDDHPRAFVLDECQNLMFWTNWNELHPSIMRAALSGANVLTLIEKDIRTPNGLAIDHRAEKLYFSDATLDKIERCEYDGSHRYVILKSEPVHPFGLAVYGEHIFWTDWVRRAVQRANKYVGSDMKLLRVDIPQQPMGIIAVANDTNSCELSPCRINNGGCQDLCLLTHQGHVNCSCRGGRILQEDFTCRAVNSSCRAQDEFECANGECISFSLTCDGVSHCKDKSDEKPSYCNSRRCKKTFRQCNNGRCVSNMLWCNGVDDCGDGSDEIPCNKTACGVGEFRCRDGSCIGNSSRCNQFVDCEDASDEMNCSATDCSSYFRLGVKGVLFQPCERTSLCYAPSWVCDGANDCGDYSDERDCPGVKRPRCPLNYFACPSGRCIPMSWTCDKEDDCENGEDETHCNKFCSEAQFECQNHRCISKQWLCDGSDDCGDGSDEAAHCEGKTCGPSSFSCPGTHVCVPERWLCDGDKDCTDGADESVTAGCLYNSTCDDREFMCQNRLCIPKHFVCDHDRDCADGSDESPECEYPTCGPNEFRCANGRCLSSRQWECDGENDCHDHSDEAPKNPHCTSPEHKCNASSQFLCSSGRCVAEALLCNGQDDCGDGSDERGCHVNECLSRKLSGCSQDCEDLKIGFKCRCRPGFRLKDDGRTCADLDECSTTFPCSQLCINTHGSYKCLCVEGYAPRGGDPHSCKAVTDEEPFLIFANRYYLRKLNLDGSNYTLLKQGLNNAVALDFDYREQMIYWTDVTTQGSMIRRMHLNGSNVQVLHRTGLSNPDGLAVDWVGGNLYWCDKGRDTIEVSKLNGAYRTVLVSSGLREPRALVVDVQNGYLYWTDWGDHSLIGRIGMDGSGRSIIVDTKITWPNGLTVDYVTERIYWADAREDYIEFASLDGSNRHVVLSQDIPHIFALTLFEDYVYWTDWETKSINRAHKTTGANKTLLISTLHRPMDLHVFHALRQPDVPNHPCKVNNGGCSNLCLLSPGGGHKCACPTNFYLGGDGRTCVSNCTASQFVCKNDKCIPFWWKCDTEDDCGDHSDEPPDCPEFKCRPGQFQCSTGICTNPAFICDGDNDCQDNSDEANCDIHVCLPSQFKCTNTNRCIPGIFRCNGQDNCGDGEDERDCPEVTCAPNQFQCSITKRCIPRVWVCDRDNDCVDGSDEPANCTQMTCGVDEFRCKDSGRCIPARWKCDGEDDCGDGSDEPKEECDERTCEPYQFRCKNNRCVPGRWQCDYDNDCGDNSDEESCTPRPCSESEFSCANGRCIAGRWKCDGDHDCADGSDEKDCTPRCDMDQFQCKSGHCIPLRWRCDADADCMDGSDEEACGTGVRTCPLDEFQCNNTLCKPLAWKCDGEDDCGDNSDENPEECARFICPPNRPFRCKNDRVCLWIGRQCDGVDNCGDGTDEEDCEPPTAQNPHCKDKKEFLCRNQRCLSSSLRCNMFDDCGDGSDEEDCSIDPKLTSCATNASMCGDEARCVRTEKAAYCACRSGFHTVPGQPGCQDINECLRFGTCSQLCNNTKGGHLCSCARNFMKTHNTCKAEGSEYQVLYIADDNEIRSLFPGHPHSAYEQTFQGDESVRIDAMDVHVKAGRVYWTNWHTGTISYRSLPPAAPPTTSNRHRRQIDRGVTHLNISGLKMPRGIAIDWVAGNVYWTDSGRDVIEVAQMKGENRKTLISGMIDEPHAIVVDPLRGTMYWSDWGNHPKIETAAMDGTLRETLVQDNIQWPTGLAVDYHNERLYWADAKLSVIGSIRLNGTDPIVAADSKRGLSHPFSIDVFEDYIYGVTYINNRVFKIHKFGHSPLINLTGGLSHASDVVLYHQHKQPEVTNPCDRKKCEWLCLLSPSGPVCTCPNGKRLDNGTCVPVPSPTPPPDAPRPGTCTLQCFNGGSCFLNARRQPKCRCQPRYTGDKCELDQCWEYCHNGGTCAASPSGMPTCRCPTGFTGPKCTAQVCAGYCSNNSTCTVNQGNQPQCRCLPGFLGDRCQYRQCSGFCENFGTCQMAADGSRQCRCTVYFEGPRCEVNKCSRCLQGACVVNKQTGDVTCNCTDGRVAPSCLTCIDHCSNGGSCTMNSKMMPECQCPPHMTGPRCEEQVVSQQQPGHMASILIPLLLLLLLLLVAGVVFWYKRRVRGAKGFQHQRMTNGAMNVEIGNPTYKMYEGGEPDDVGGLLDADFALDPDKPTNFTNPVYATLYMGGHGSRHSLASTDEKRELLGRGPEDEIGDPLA
UniProt Q924X6, residues 29-996: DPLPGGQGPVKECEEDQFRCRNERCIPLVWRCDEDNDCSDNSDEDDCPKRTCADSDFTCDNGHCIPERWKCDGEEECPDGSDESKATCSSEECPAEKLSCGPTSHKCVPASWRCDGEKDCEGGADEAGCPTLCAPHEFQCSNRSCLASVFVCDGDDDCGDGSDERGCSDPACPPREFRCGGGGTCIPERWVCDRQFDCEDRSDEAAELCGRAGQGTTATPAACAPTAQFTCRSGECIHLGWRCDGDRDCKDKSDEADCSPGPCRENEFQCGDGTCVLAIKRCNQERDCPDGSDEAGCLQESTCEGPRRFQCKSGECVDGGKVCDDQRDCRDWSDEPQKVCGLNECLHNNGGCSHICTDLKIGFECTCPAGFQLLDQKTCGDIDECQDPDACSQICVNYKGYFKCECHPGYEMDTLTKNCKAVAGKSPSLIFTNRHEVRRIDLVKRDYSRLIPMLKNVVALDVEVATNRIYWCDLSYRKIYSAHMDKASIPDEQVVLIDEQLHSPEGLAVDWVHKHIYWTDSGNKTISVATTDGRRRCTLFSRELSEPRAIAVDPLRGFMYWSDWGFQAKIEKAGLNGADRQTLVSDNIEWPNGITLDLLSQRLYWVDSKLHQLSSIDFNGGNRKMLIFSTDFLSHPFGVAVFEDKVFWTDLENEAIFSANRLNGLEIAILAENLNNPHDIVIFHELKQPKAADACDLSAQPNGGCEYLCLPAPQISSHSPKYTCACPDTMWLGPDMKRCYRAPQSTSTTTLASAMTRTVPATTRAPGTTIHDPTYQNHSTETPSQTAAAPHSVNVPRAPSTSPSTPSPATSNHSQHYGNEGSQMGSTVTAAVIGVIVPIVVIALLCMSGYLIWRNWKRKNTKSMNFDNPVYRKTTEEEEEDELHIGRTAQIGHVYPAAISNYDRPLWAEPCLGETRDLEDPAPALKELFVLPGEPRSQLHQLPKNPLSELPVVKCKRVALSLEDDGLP

These are yes or no findings as the source states them, for the method shown. For some of these results: In cells and extracts the contact can be indirect. Some results given as binding are weak or reduced against the parent protein; the word gives no strength.

Assay [1] deals with LRP4 (endogenous, mouse embryonic muscle) (mouse (endogenous in embryonic muscle)) (UniProt Q8VI56). As to the kind of experiment: co-IP; E14.5 mouse hind limb muscle extract (PBS, 5 mM EDTA, 5 mM EGTA, 1% digitonin); anti-LRP4, anti-ApoER2 or anti-LRP1 overnight at 4°C, Protein A Dynabeads; immunoblot. Background: In western blotting, separated proteins are transferred to a membrane and probed.

Assay [2] has as its target LRP1 (endogenous, mouse embryonic muscle) (mouse (endogenous in embryonic muscle)) (UniProt Q91ZX7). The description is as above.
Assay [3] concerns the target Apoer2 (endogenous, mouse embryonic muscle) (mouse (endogenous in embryonic muscle)) (UniProt Q924X6). The description is as above.
In assay [4] the target is T1, full length APP expressed on HEK293T cells, P12023.
T1 chain: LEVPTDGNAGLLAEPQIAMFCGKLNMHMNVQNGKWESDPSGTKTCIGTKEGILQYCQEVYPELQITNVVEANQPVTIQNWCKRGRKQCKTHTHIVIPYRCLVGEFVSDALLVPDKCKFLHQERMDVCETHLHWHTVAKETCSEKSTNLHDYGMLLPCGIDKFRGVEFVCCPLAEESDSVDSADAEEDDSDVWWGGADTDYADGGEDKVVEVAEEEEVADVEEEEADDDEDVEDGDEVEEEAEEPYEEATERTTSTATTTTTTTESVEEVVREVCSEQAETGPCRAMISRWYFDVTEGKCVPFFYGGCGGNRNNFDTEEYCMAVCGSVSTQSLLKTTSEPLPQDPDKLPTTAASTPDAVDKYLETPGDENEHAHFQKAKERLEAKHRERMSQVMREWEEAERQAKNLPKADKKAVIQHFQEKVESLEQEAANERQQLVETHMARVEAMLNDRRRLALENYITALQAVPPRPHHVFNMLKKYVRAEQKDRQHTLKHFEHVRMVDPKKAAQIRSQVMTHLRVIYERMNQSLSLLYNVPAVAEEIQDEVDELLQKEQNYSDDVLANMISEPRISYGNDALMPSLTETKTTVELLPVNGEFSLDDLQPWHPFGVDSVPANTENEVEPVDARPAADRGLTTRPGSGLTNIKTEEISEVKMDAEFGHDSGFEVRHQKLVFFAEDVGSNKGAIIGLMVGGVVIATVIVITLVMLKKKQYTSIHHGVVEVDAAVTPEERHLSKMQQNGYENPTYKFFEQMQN
As to the kind of experiment: cell aggregation assay; HEK293T cells expressing APP (green) and LRP4 (red) mixed in suspension in aggregation buffer with CaCl2, 30 min, 37°C; aggregates >3000 µm^2 scored. Conditions: remark: other sources report otherwise.

B1: MuSK (muscle-specific tyrosine kinase; endogenous, mouse embryonic muscle) (receptor, UniProt Q61006 22-868)
chain: EKLPKAPVITTPLETVDALVEEVATFMCAVESYPQPEISWTRNKILIKLFDTRYSIRENGQLLTILSVEDSDDGIYCCIANNGVGGAVESCGALQVKMKPKITRPPINVKIIEGLKAVLPCTTMGNPKPSVSWIKGDNALRENSRIAVLESGSLRIHNVQKEDAGQYRCVAKNSLGTAYSKLVKLEVEVFARILRAPESHNVTFGSFVTLRCTAIGIPVPTISWIENGNAVSSGSIQESVKDRVIDSRLQLFITKPGLYTCIATNKHGEKFSTAKAAATVSIAEWSKSQKDSQGYCAQYRGEVCDAVLAKDALVFFNTSYRDPEDAQELLIHTAWNELKAVSPLCRPAAEALLCNHLFQECSPGVVPTPMPICREYCLAVKELFCAKEWQAMEGKAHRGLYRSGMHLLPVPECSKLPSMHRDPTACTRLPYLDYKKENITTFPSITSSRPSADIPNLPASTSSFAVSPAYSMTVIISIVSSFALFALLTIATLYCCRRRKEWKNKKRESTAVTLTTLPSELLLDRLHPNPMYQRMPLLLNPKLLSLEYPRNNIEYVRDIGEGAFGRVFQARAPGLLPYEPFTMVAVKMLKEEASADMQADFQREAALMAEFDNPNIVKLLGVCAVGKPMCLLFEYMAYGDLNEFLRSMSPHTVCSLSHSDLSTRARVSSPGPPPLSCAEQLCIARQVAAGMAYLSERKFVHRDLATRNCLVGETMVVKIADFGLSRNIYSADYYKADGNDAIPIRWMPPESIFYNRYTTESDVWAYGVVLWEIFSYGLQPYYGMAHEEVIYYVRDGNILACPENCPLELYNLMRLCWSKLPADRPSFCSIHRILQRMCERAEGTVGV
For B1, the binding result is “binds” in assay [1], “no binding” in assay [2] and “no binding” in assay [3].

B2: full length APP expressed on HEK293T cells, P12023 18-770 (protein)
chain: T1 chain
For B2, the binding result in assay [4] is on record as “no binding”.
